This is one part of the list.

In the test the test system is HepG2. As to the kind of experiment: cytotoxicity call (relative viability < 0.9). The conditions noted are these: 10 µM.
Take `O=C(O)/C=C/C(=O)N1CCN(C(=O)/C=C/C(=O)O)CC1`: the cytotoxicity call was “inactive”.

As for `C[C@H]1CN([C@@H](C)CO)C(=O)Cc2cc(NC(=O)NC3CCCCC3)ccc2O[C@@H]1CN(C)Cc1ccc(Cl)c(Cl)c1`, the cytotoxicity call is “inactive”.

As to `CCC[C@@H](O)C#Cc1cnc2c(c1)C(=O)N([C@H](C)CO)C[C@H](C)[C@H](CN(C)C(=O)Nc1ccc(F)cc1)O2`, the cytotoxicity call is “inactive”.

Take `CC(C)NC(=O)Nc1cccc2c1O[C@H](CN(C)S(=O)(=O)c1cccs1)[C@@H](C)CN([C@@H](C)CO)C2=O`: the cytotoxicity call is “inactive”.

Consider `O=C1CCC(C(=O)N2CSCC2C(=O)O)N1` (centres undefined), for which the cytotoxicity call was “active”.

Regarding `CN1C(=O)c2cc(NC(=O)c3cccs3)ccc2OC[C@@H]2O[C@H](CC(=O)NCC(F)(F)F)CC[C@H]21`, the cytotoxicity call is “inactive”.

Turning to `C[C@@H]1CN([C@H](C)CO)C(=O)c2cc(NC(=O)Cc3ccccc3)ccc2O[C@@H](C)CCCCO[C@@H]1CN(C)C(=O)CCC(F)(F)F`, the cytotoxicity call is “inactive”.

Take `COC(=O)/C=C/c1cn([C@H]2OC[C@@H](CO)[C@@H]2O)c(=O)[nH]c1=O`: the cytotoxicity call was “inactive”.

For `C[C@@H](O)c1ccc2ccccc2c1`, the cytotoxicity call was “inactive”.

Take `O=c1nc(Nc2ccccc2)[nH]c(=O)[nH]1`: the cytotoxicity call was “inactive”.

Regarding `CCOC(=O)c1cc2c(c(-c3cccc(C#CCN(C)C)c3)n1)[C@@H](CCO[Si](C)(C)C(C)(C)C)N([S@](=O)C(C)(C)C)C2`, the cytotoxicity call was “active”.

In the case of `Cc1ccc(S(=O)(=O)Nc2cccc3c2O[C@H](CN(C)Cc2ccc(Cl)c(Cl)c2)[C@@H](C)CN([C@H](C)CO)C3=O)cc1`, the cytotoxicity call is “inactive”.

Turning to `O=C(NCc1csnn1)c1csnn1`, the cytotoxicity call was “inactive”.

For the molecule `C[C@@H]1CCCCO[C@@H](CN(C)C(=O)c2ccccc2)[C@@H](C)CN([C@H](C)CO)C(=O)c2cc(NS(=O)(=O)c3ccc(Cl)cc3)ccc2O1`, the cytotoxicity call is “inactive”.

The values are drawn from the antibiotic and cytotoxicity screens of Wong et al. (2023).
